# ± gives the standard deviation of the averaged measurements. This is one part of the list.
# System: PfAP2-I AP2 domain 3 (GST-tagged)
# Assay: gcPBM binding intensity (ln(normalized median fluorescence intensity)); higher = stronger DNA binding
# Method in brief: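 GST-tagged P. falciparum DNA-binding domains produced in E. coli were incubated for 1 h on an Agilent 4 × 180k array of primer-extended double-stranded 36-bp intergenic genomic probes with negative controls. Binding intensity is the highest Masliner-normalised natural-log median intensity across replicate spots of either probe orientation, with bound protein detected by Alexa488 anti-GST antibody at 488 nm.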
row,Sequence,gcPBM binding intensity (ln)
1,AAAAATTACAAAAATGCATGTACTATTCATATTTTT [TGCATGCA_site918],7.64 ± 0.62
2,ATTATATTAATATATATATATATATATATAATAATA [CACACA_negctrl_site437],7.83 ± 0.32
3,TTTTTTTCTCTTTTTATTACAAAAAGGGTTTATATA [TGCATGCA_negctrl_site75],7.67 ± 0.28
4,TAATATTATATTATATGTACATAACAAATTATATTT [XGTACX_site4296],7.96 ± 0.16
5,ATGAAAAAATTTAAATGTACATTACATATATTTATT [XGTACX_site2524],7.62 ± 0.45
6,TCTTTTTTTTTTTTTTTTTCTTCTTCTCAATATAAA [GTGCAC_negctrl_site303],7.72 ± 0.45
7,TATGCACACAATATATGTACTTATATATTTTAAAAA [XGTACX_site5482],8.05 ± 0.19
8,TTTTATAAAAAAACTATAAAAATATATAGTACTTAA [CACACA_negctrl_site440],7.34 ± 0.45
9,TAGTGTATGATAATATGTACATACATTTATATAATA [XGTACX_site6330],7.83 ± 0.28
10,CATAATATGTGGACTTTACACACTTGTTTTAAAATT [CACACA_site819],7.78 ± 0.55
11,AATAATAAAAAATACACACACATATAAATATATTAC [CACACA_site7597],7.61 ± 0.58
12,CATATAAAGATATGAACACACAAAAAGAATATTTCC [CACACA_site6811],7.61 ± 0.76
13,TTCCGAACGACCTAAAGTACATGTATTTCAACTTTT [XGTACX_site1220],7.5 ± 0.52
14,AGGACACATATATGCAAAAAAAAAAAAAAAAAAAAA [TGCATGCA_negctrl_site427],8.02 ± 0.33
15,ATAAAAAACAGTGGCACACATTATGTATCCACCTTT [CACACA_site5958],8.21 ± 0.61
16,ATGCATATAATTATATGTACATATAAGAAATATATA [XGTACX_site517],7.83 ± 0.28
17,CATTTATTATGATAAAGTACTTAAATTAATAGATAA [XGTACX_site3566],7.68 ± 0.37
18,TTTTGAAAGTTTTTGTGTCCACATATATTTATATAT [XGTACX_site6563],8.01 ± 0.18
19,TTTATTTATTACTAAAGTACTAAATCATATAATTAT [XGTACX_site3654],7.46 ± 0.47
20,GTTTAAAGTTGAACAAGTACACATTTATATAAGGCA [XGTACX_site351],7.99 ± 0.41
21,TTTAATAAAAAAATTAAAAATAAAGAAAAAAAAAAA [CACACA_negctrl_site1464],8.36 ± 0.64
22,AAATATATATAAAACTCACACATTATCTTATAACCA [CACACA_site5268],7.83 ± 0.23
23,TTAAATAAATATAAGTGTACATACACACTTTACAAT [XGTACX_site6348],7.62 ± 0.26

row,Sequence,gcPBM binding intensity (ln)
1,GCATATGTTCAGCGTTGTACATAAAAAAAAACATAT [XGTACX_site5974],8.13 ± 0.49
2,GCGTAATCTATTTGCACACTTATTTGTTCTTAAAAA [CACACA_site672],9.915 ± 0.049
3,AAAAAATAATATTGTACACACATAAATTCTTTGTCA [CACACA_site5187],7.76 ± 0.33
4,ATGTATGGAAATTTTACACACAAGAGTAGTTTAAAA [CACACA_site1710],7.61 ± 0.66
5,TATGTGTATACAATATGTACATATGTTAACTTGTAT [XGTACX_site872],7.97 ± 0.62
6,TGAGATAACAAAAGTTGTACTTTTTTTTTTTTTTTT [XGTACX_site3004],8.73 ± 0.23
7,AAATTTAAAATAAGTAGTACATAATATAAATAAATA [XGTACX_site3592],7.71 ± 0.47
8,TAATTGAGCAAATGAGTGCACAGCATAAAGTATAGT [GTGCAC_site9497],10.3 ± 0.61
9,TATAAAAGAAACTATACACACATATTTTAAATATTT [CACACA_site2753],7.54 ± 0.7
10,GTACTTGTATTATGCACACATATAATTAAACATATA [CACACA_site3312],10.1 ± 0.46
11,AAATTTATTTCTGTGTGTCCACAAAAAAAAATCTTT [XGTACX_site691],7.76 ± 0.4
12,TAAGCCTTTCTATTATGTACTTATTAAAACATGTAG [XGTACX_site8022],8.035 ± 0.064
13,CTTATATTAAAACACACACACGCACAAAACAGAAAT [CACACA_site1462],8.63 ± 0.42
14,TTTTTTTTTTTCAATAGTACTTTCCATTTACATATA [XGTACX_site3889],7.99 ± 0.57
15,AAAAAAAATAATATTGTACACACATAAATTCTTTGT [CACACA_site8654],7.66 ± 0.38
16,TTTTATAAATACACACGTACGTGTGCATAACGTTTT [XGTACX_site3199],9.465 ± 0.092
17,TACTTTTTAAAAATGTTTTATATAATAAAAAGATAT [CACACA_negctrl_site678],7.7 ± 0.59
18,ATTATAAACCAGAATGCATGTAGATGAATCTTTTCT [TGCATGCA_site284],7.63 ± 0.65
19,TAAAAATATAAAACATGTACATATATGCATATATTT [XGTACX_site8093],7.72 ± 0.58
20,ATATCATAAGTAGAAACACACAATTAGATTTTTTCC [CACACA_site2353],7.28 ± 0.83
21,AAAATATAATATAATGCACACATAAAAAAAAAATCA [CACACA_site7922],10.8 ± 0.64
22,TATCTGTAAATGGACACACACATATATATATATATA [CACACA_site5926],9.53 ± 0.75
23,TATATATATAAAAATACACACATGAATGAATATATA [CACACA_site419],8.29 ± 0.4

row,Sequence,gcPBM binding intensity (ln)
1,TCTTTATTATTCGCCACACACATATATATATATATA [CACACA_site3077],9.36 ± 0.071
2,TTTTAAAAAAAATAAAAAATAAACAATAATAAATAA [CACACA_negctrl_site721],7.42 ± 0.59
3,GGGGGCTTTTATAAAAGTACAAAATGAATAAAAATT [XGTACX_site2393],9.22 ± 0.57
4,TATACTCATAAATACACACACATATATATATATATA [CACACA_site5822],9.42 ± 0.45
5,TATACATACCCACCCACACACAAAAAAAAAAAAAAA [CACACA_site4632],8.31 ± 0.55
6,GGGGACGCGGGTGGGGGTACTCACACTATGCAAAAT [XGTACX_site7745],9.92 ± 0.085
7,ATATATATATGTATGTATATATATATATATGTTTGA [GTGCAC_negctrl_site561],9.05 ± 0.11
8,GTATCAATAAAAAACAGTACATATATAATATATTTA [XGTACX_site1083],7.64 ± 0.43
9,AAAAAAAAGGAAATAACACACATGTATATATCTATA [CACACA_site6856],7.42 ± 0.53
10,TTCATATAGAATTGTACACACAAAAACGACATTGTG [CACACA_site7061],7.96 ± 0.25
11,TTTTTAAAAATATACACACACAGATATTATATATAT [CACACA_site786],8.31 ± 0.6
12,ATATATGTTCCTTTTACACACATAATCTTTTTTTTA [CACACA_site2661],8.04 ± 0.7
13,AAAATATAATATAATGCACACATAAAAAAAAAAAAA [CACACA_site7989],11.1 ± 0.49
14,ATATTGTGTTATAAATGTACACAATTTCCTTTCATA [XGTACX_site7481],7.78 ± 0.46
15,TTTAAAAAAAAAAATACACACATAAAAGTTTTCAAA [CACACA_site6471],7.47 ± 0.57
16,TACAAAAGCTATAACATTCACCACATTATAAAAATA [CACACA_negctrl_site1112],7.78 ± 0.18
17,TTACAAATATTATAATGTACCCATTTTTTTTGCCTT [XGTACX_site6612],7.83 ± 0.33
18,TTTTCATTAAGATACTTATAATAGTTTATTAGTAAA [CACACA_negctrl_site586],7.38 ± 0.61
19,AAAATATATAAATATACATGCATAATTAATAGTATA [TGCATGCA_site804],7.65 ± 0.61
20,AATTCAAAGAAAAACTGTACGTGTAGCAAACATCCT [XGTACX_site599],7.91 ± 0.46
21,TAATATGAAGATGGCAGTACTCTAGTCAATTTTTAC [XGTACX_site5375],7.74 ± 0.69
22,ATATATTTTATACATACACACATATATATATTTTTT [CACACA_site3940],7.93 ± 0.52
23,TGATTAAATCAAGAAAGTACAAAATGAAATATATAA [XGTACX_site4319],7.97 ± 0.45

row,Sequence,gcPBM binding intensity (ln)
1,AAAATAATTTTATAGTTGCACTATATCGTATACAAT,9.25 ± 0.38
2,TAAAGTGTAAAATTCACACACATATAAATAAATATA [CACACA_site6765],7.63 ± 0.4
3,TTAATTATGTTTTGGTGTACAATAAATTGAATAGAT [XGTACX_site3306],8.24 ± 0.4
4,CTACTTAATATTTGTACACACATATTTAACCTACTA [CACACA_site5725],8.32 ± 0.2
5,ATATATATTTATATATGTACATATTTTTGTGTATTT [XGTACX_site1183],7.81 ± 0.49
6,ATGTTATAATTTAGTGTGCACATATTAAGAGGAACA,10.3 ± 0.099
7,ATATATATATATATATGTACATAATAATTTTATAAA [XGTACX_site5105],9.31 ± 0.48
8,AATAATAATAGAAACACACACACATTTTTAATAATA [CACACA_site1217],7.62 ± 0.49
9,TCCATTGTCACCTTTTGTACTTAAATTTTTTCCTCC [XGTACX_site1573],8.29 ± 0.43
10,CTTTTTTTTTTTTTTTGTCCGTATGAGGGACCTATA [XGTACX_site8839],7.82 ± 0.42
11,CAAAAATTACCCTTGTGTACACATATATTATATGTA [XGTACX_site1124],8.41 ± 0.23
12,ATAAAAAAATCAGACACACACACGTAAACACATACA [CACACA_site5529],8.06 ± 0.35
13,ATATCATCTTCTCTATCATTTTTTTTTTTTTTTTTT [CACACA_negctrl_site1220],8.74 ± 0.34
14,TGAGATAAATGTGGTAGTACATTTTTTTTATATATA [XGTACX_site1918],7.95 ± 0.35
15,CTATTTGGGGGAAGAGTGCATGACATGAATATAAAA,10.5 ± 0.36
16,AAAAGGAAGATATATACACACATACAAATATATATA [CACACA_site5236],7.97 ± 0.83
17,TTTTTTTTTTTTTTCACACACTAATAATATTATCAT [CACACA_site4417],8.24 ± 0.53
18,ATAAATTTTTAAAAATATGAATTATGTAATTTGTGA [CACACA_negctrl_site1621],7.51 ± 0.49
19,CTATATTATAAATATACACACATATCTTAAGTATAA [CACACA_site3096],7.7 ± 0.46
20,TTGATGTATACAATGTAGATTATTTAATATTTCAAC [CACACA_negctrl_site73],7.54 ± 0.54

# Reference: the supplement of paper PMC11417369
